Assay results published in PMC4608766, “The Roles of Arabidopsis CDF2 in Transcriptional and Posttranscriptional Regulation of Primary MicroRNAs” (PLoS Genetics, 2015).
These are yes or no findings as the source states them, for the method shown. For some assays here: Binding seen in cells or lysates may run through a third protein. Some entries that bind do so weakly or less than the wild type. Sequences can lack the tags named with a protein.

Assays:
[1] = target: T1, hemagglutinin (HA)-labeled CDF2 (pCDF2::CDF2-HA) (Arabidopsis) (UniProt Q93ZL5); assay: co-IP; extracts of 22-day-old Arabidopsis plants coexpressing pCDF2::CDF2-HA and pDCL1::DCL1-YFP; anti-HA agarose; blots with anti-GFP and anti-HA
T1 sequence: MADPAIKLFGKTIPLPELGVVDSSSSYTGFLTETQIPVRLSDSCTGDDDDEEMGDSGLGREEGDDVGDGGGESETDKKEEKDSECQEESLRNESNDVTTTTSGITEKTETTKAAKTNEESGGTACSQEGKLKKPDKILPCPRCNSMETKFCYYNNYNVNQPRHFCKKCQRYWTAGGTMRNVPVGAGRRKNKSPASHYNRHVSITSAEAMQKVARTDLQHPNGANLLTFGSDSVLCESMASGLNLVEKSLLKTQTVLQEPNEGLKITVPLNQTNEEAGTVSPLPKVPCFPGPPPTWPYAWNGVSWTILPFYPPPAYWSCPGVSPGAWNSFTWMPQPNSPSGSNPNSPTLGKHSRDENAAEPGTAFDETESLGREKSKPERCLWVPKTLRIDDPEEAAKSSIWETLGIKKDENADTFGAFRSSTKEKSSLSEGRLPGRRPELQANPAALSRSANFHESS

[2] = target: DCL1, BiFC fusion (Arabidopsis) (UniProt Q9SP32); assay: split reporter; BiFC: YFPN- and YFPC-tagged plasmids co-expressed in tobacco leaves, imaged 48 h after co-inoculation
[3] = target: T2, HYL1, BiFC fusion (Arabidopsis) (UniProt O04492); assay: as above
T2 sequence: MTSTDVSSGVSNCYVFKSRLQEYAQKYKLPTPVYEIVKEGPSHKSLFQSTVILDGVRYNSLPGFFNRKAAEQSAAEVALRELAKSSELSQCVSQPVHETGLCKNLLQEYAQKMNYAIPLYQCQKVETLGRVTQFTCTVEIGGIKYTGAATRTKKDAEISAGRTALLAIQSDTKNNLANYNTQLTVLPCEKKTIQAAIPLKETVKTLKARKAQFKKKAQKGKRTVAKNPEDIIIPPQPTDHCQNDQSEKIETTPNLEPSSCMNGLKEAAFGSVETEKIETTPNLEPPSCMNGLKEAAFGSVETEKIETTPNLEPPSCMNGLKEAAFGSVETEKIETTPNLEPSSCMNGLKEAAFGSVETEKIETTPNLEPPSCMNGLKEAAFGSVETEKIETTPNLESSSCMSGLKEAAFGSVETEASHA

[4] = target: T3, two C-terminal dsRBDs of DCL1 (DCL1-RBD, aa 1733-1910), two-hybrid fusion (Arabidopsis) (UniProt Q9SP32); assay: two-hybrid; direct co-transformation (ProQuest system); growth on SC minus His, Trp and Leu with 5 mM 3-AT
T3 sequence: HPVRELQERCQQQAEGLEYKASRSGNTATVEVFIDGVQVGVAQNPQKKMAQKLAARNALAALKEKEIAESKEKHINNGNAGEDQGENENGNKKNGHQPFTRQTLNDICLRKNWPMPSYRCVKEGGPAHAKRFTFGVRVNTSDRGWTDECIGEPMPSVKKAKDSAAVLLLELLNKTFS

[5] = target: T4, full-length HYL1, two-hybrid fusion (Arabidopsis) (UniProt O04492); assay: as above
T4 sequence: T2 sequence

**Q.** With “yellow fluorescent protein (YFP)-labeled DCL1 (pDCL1::DCL1-YFP) (from UniProt Q9SP32 1-1909)” as the molecule, how does the binding [1] read?
**A.** binds

B1: C-terminal fragment of CDF2 (CDF2-C, from aa 280 to 457), BiFC fusion (domain or fragment, UniProt Q93ZL5 280-457)
chain: SPLPKVPCFPGPPPTWPYAWNGVSWTILPFYPPPAYWSCPGVSPGAWNSFTWMPQPNSPSGSNPNSPTLGKHSRDENAAEPGTAFDETESLGREKSKPERCLWVPKTLRIDDPEEAAKSSIWETLGIKKDENADTFGAFRSSTKEKSSLSEGRLPGRRPELQANPAALSRSANFHESS
**Q.** With B1 as the molecule, how does the binding [2] read?
**A.** binds

**Q.** What about the binding [3] of the same molecule?
**A.** binds

B2: CDF2 C1 fragment (aa 189-457), two-hybrid fusion (domain or fragment, UniProt Q93ZL5 189-457)
chain: KNKSPASHYNRHVSITSAEAMQKVARTDLQHPNGANLLTFGSDSVLCESMASGLNLVEKSLLKTQTVLQEPNEGLKITVPLNQTNEEAGTVSPLPKVPCFPGPPPTWPYAWNGVSWTILPFYPPPAYWSCPGVSPGAWNSFTWMPQPNSPSGSNPNSPTLGKHSRDENAAEPGTAFDETESLGREKSKPERCLWVPKTLRIDDPEEAAKSSIWETLGIKKDENADTFGAFRSSTKEKSSLSEGRLPGRRPELQANPAALSRSANFHESS
**Q.** For B2, which binding [4] is on record?
**A.** binds

B3: CDF2 C3 fragment (aa 360-457), two-hybrid fusion (domain or fragment, UniProt Q93ZL5 360-457)
chain: PGTAFDETESLGREKSKPERCLWVPKTLRIDDPEEAAKSSIWETLGIKKDENADTFGAFRSSTKEKSSLSEGRLPGRRPELQANPAALSRSANFHESS
**Q.** With B3 as the molecule, how does the binding [4] read?
**A.** binds

B4: CDF2 C4 fragment (aa 361-436), two-hybrid fusion (domain or fragment, UniProt Q93ZL5 361-436)
chain: GTAFDETESLGREKSKPERCLWVPKTLRIDDPEEAAKSSIWETLGIKKDENADTFGAFRSSTKEKSSLSEGRLPGR
**Q.** B4 was tested. Which binding [4] did it give?
**A.** binds

B5: full-length CDF2, two-hybrid fusion (protein, UniProt Q93ZL5 1-457)
chain: T1 sequence
**Q.** For B5, which binding [5] is on record?
**A.** binds

**Q.** And the binding [4]?
**A.** binds

B6: CDF2, BiFC fusion (protein, UniProt Q93ZL5 1-457)
chain: T1 sequence
**Q.** Which results are given for B6?
**A.** binding [2]: binds; binding [3]: binds

B7: CDF2 C5 fragment (aa 361-398), two-hybrid fusion (domain or fragment, UniProt Q93ZL5 361-398)
chain: GTAFDETESLGREKSKPERCLWVPKTLRIDDPEEAAKS
**Q.** Which binding [4] does the source give for B7 here?
**A.** no binding

B8: CDF2 C6 fragment (aa 396-457), two-hybrid fusion (domain or fragment, UniProt Q93ZL5 396-457)
chain: AKSSIWETLGIKKDENADTFGAFRSSTKEKSSLSEGRLPGRRPELQANPAALSRSANFHESS
**Q.** For B8, which binding [4] is on record?
**A.** no binding

B9: CDF2 C7 fragment (aa 396-421), two-hybrid fusion (domain or fragment, UniProt Q93ZL5 396-421)
chain: AKSSIWETLGIKKDENADTFGAFRSS
**Q.** B9 was tested. Which binding [4] did it give?
**A.** no binding

B10: CDF2 C8 fragment (aa 385-400), two-hybrid fusion (domain or fragment, UniProt Q93ZL5 385-400)
chain: KTLRIDDPEEAAKSSI
**Q.** How did the binding [4] turn out when B10 was run?
**A.** no binding
